Enrichment ratio data for 195 variants are collected here from a collection of fitness landscapes (doi:10.1126/science.1257360).

The labels stand for the following.
B1: PhoQ; a variant is named by its letters at X, in order, P23837 (parent)
chain: MKKLLRLFFPLSLRVRFLLATAAVVLVLSLAYGMVALIGYSVSFDKTTFRLLRGESNLFYTLAKWENNKLHVELPENIDKQSPTMTLIYDENGQLLWAQRDVPWLMKMIQPDWLKSNGFHEIEADVNDTSLLLSGDHSIQQQLQEVREDDDDAEMTHSVAVNVYPATSRMPKLTIVVVDTIPVELKSSYMVWSWFIYVLSANLLLVIPLLWVAAWWSLRPIEALAKEVRELEEHNRELLNPATTRELTSLVRNLNRLLKSERERYDKYRTTLTDLTHSLKTPLXXLQXXLRSLRSEKMSVSDAEPVMLEQISRISQQIGYYLHRASMRGGTLLSRELHPVAPLLDNLTSALNKVYQRKGVNISLDISPEISFVGEQNDFVEVMGNVLDNACKYCLEFVEISARQTDEHLYIVVEDDGPGIPLSKREVIFDRGQRVDTLRPGQGVGLAVAREITEQYEGKIVAGESMLGGARMEVIFGRQHSAPKDE

Some of the results follow.

In this assay the parent is B1. The assay is described as follows: enrichment ratio after two sorts for PhoP signalling (ratio (wild type AVST 3.29)); higher = more functional. Particulars: with PhoP (E. coli).
As for DSTW, the enrichment ratio is at most 0.25.

Turning to QESA, the enrichment ratio is at most 0.25.

Turning to HHGC, the enrichment ratio was at most 0.25.

As for VFMG, the enrichment ratio was at most 0.25.

For the variant IARK, the enrichment ratio was at most 0.25.

For YDPR, the enrichment ratio is at most 0.25.

With VSDF, the enrichment ratio was at most 0.25.

On to FYDG, for which the enrichment ratio is at most 0.25.

SGMI: the enrichment ratio was found to be 25.

Take DNCH: the enrichment ratio is at most 0.25.

Consider SEHK, for which the enrichment ratio is at most 0.25.

Consider LFGA, for which the enrichment ratio is at most 0.25.

Turning to MGPD, the enrichment ratio is at most 0.25.

As to NVAW, the enrichment ratio is at most 0.25.

Turning to MLIT, the enrichment ratio is at most 0.25.

For the variant ASWP, the enrichment ratio is at most 0.25.

For DGNR, the enrichment ratio is at most 0.25.

For WSRG, the enrichment ratio is at most 0.25.

Take KESA: the enrichment ratio is at most 0.25.

EQRL: the enrichment ratio is at most 0.25.

Regarding NTYI, the enrichment ratio is at most 0.25.

With YMSY, the enrichment ratio is at most 0.25.

Consider GTNK, for which the enrichment ratio was at most 0.25.

Consider IFNH, for which the enrichment ratio is at most 0.25.

For the variant SSAD, the enrichment ratio is at most 0.25.

For TKAE, the enrichment ratio is at most 0.25.

For PVHE, the enrichment ratio was at most 0.25.

Consider TVHY, for which the enrichment ratio was 0.821.

With ANCI, the enrichment ratio came to 19.9.

In the case of KDNT, the enrichment ratio is at most 0.25.

Regarding EVYI, the enrichment ratio was at most 0.25.

Regarding MQGR, the enrichment ratio is at most 0.25.

With TATF, the enrichment ratio is 8.91.

For the variant MIPG, the enrichment ratio was at most 0.25.

Take DARS: the enrichment ratio was at most 0.25.

Regarding RSSC, the enrichment ratio is at most 0.25.

As to RYNA, the enrichment ratio is at most 0.25.

Consider TQFA, for which the enrichment ratio is at most 0.25.

LMTE: the enrichment ratio was at most 0.25.

Regarding FMMR, the enrichment ratio is at most 0.25.

On to RYET, for which the enrichment ratio was at most 0.25.

Regarding GVRL, the enrichment ratio is at most 0.25.

As to TRVL, the enrichment ratio was 11.6.

As for TDQG, the enrichment ratio came out at 1.47.

For the variant YIPV, the enrichment ratio is 0.333.

Turning to RVKY, the enrichment ratio was at most 0.25.

With RRTQ, the enrichment ratio was at most 0.25.

As for LWHV, the enrichment ratio was at most 0.25.

On to LDAC, for which the enrichment ratio is at most 0.25.

Turning to RHDC, the enrichment ratio was at most 0.25.

Take MKVF: the enrichment ratio was at most 0.25.

DVMG: the enrichment ratio was at most 0.25.

Consider EIKF, for which the enrichment ratio is at most 0.25.

In the case of GGCQ, the enrichment ratio came to 13.2.

In the case of SDTT, the enrichment ratio was at most 0.25.

For IGKE, the enrichment ratio was at most 0.25.

With KHNY, the enrichment ratio was at most 0.25.

With RCYE, the enrichment ratio was at most 0.25.

In the case of SREQ, the enrichment ratio was at most 0.25.

On to YYKD, for which the enrichment ratio was at most 0.25.

Consider DHDL, for which the enrichment ratio is at most 0.25.

For DMLM, the enrichment ratio was at most 0.25.

Turning to RDGW, the enrichment ratio was at most 0.25.

Consider HETI, for which the enrichment ratio was determined as 0.579.

For the variant NQCV, the enrichment ratio was at most 0.25.

For the variant HFAV, the enrichment ratio is at most 0.25.

For the variant RMWI, the enrichment ratio was at most 0.25.

Turning to SAEY, the enrichment ratio is at most 0.25.

As to ITYM, the enrichment ratio was at most 0.25.

In the case of HDHP, the enrichment ratio was at most 0.25.

Turning to FEEC, the enrichment ratio was at most 0.25.

Turning to IEKH, the enrichment ratio is at most 0.25.

For QNFS, the enrichment ratio was at most 0.25.

For the variant FQHM, the enrichment ratio was at most 0.25.

Consider HPNK, for which the enrichment ratio was at most 0.25.

Turning to WASW, the enrichment ratio is at most 0.25.

As for PRPL, the enrichment ratio was at most 0.25.

As for TRWW, the enrichment ratio is at most 0.25.

Consider SDFK, for which the enrichment ratio is at most 0.25.

LWPA: the enrichment ratio was at most 0.25.

Regarding DIQV, the enrichment ratio was at most 0.25.

As for EINI, the enrichment ratio is at most 0.25.

As to RSRE, the enrichment ratio was at most 0.25.

HSCH: the enrichment ratio was at most 0.25.

Take QDMV: the enrichment ratio worked out at 7.48.

Turning to TKGS, the enrichment ratio stood at 1.16.

Take TDIM: the enrichment ratio came to 10.7.

In the case of CPHV, the enrichment ratio is at most 0.25.

Regarding HWPQ, the enrichment ratio was at most 0.25.

On to ENQH, for which the enrichment ratio is at most 0.25.

Regarding GDGD, the enrichment ratio was at most 0.25.

In the case of FPPF, the enrichment ratio was at most 0.25.

With LFIE, the enrichment ratio was at most 0.25.

Turning to NHGT, the enrichment ratio was at most 0.25.

As to PYYG, the enrichment ratio is at most 0.25.

Regarding DFMD, the enrichment ratio is at most 0.25.

In the case of WASN, the enrichment ratio is at most 0.25.

As to ETFM, the enrichment ratio was at most 0.25.

As to QAKA, the enrichment ratio was at most 0.25.

As for LVNP, the enrichment ratio is at most 0.25.

As for RDAF, the enrichment ratio was at most 0.25.

On to VQFP, for which the enrichment ratio is at most 0.25.

With GIPN, the enrichment ratio is at most 0.25.

Turning to GKTE, the enrichment ratio was at most 0.25.

As for AFLC, the enrichment ratio amounted to 4.94.

In the case of RWAV, the enrichment ratio was at most 0.25.

In the case of AAIS, the enrichment ratio turned out to be 2.64.

For FVVM, the enrichment ratio was at most 0.25.

In the case of IMTY, the enrichment ratio is at most 0.25.

For PAGC, the enrichment ratio was at most 0.25.

Consider LTNP, for which the enrichment ratio was at most 0.25.

Regarding QCIQ, the enrichment ratio was at most 0.25.

WVFM: the enrichment ratio was at most 0.25.

As for PMGD, the enrichment ratio is at most 0.25.

For NPIA, the enrichment ratio is at most 0.25.

For the variant AKVN, the enrichment ratio is at most 0.25.

Take WAQK: the enrichment ratio was at most 0.25.

Take IADD: the enrichment ratio is at most 0.25.

In the case of HHTA, the enrichment ratio is at most 0.25.

As to LDWS, the enrichment ratio was at most 0.25.

Consider NRSS, for which the enrichment ratio was at most 0.25.

LTYI: the enrichment ratio was at most 0.25.

Regarding YWMS, the enrichment ratio is at most 0.25.

As for DEGA, the enrichment ratio is at most 0.25.

For the variant WRVL, the enrichment ratio was at most 0.25.

For YWVG, the enrichment ratio was at most 0.25.

For SMGS, the enrichment ratio was 1.09.

Turning to ALSM, the enrichment ratio turned out to be 17.

For WHHM, the enrichment ratio was at most 0.25.

Consider SPRM, for which the enrichment ratio is at most 0.25.

As for MMEY, the enrichment ratio was at most 0.25.

As to EPSC, the enrichment ratio is at most 0.25.

As to MLKT, the enrichment ratio was at most 0.25.

QAVI: the enrichment ratio was at most 0.25.

As for QYRC, the enrichment ratio is at most 0.25.

Consider KNIM, for which the enrichment ratio is at most 0.25.

On to IHTF, for which the enrichment ratio was at most 0.25.

In the case of PVRV, the enrichment ratio was at most 0.25.

FIVP: the enrichment ratio is at most 0.25.

On to YFYT, for which the enrichment ratio was at most 0.25.

With DEDS, the enrichment ratio is at most 0.25.

In the case of QGCW, the enrichment ratio is at most 0.25.

As to IQYV, the enrichment ratio was at most 0.25.

Take SGCY: the enrichment ratio was 10.6.

For KCPD, the enrichment ratio was at most 0.25.

On to IAAH, for which the enrichment ratio was at most 0.25.

NGKN: the enrichment ratio was at most 0.25.

Turning to SKYR, the enrichment ratio is at most 0.25.

Take WIFA: the enrichment ratio was at most 0.25.

Regarding VCHR, the enrichment ratio was at most 0.25.

Consider MCSH, for which the enrichment ratio worked out at 4.62.

For the variant NQWF, the enrichment ratio was at most 0.25.

Consider LALK, for which the enrichment ratio was at most 0.25.

On to PMFC, for which the enrichment ratio is at most 0.25.

For WATY, the enrichment ratio was at most 0.25.

As for KHGI, the enrichment ratio is at most 0.25.

Turning to YEYH, the enrichment ratio is at most 0.25.

YFIT: the enrichment ratio is at most 0.25.

For the variant IEYT, the enrichment ratio was at most 0.25.

In the case of EKWF, the enrichment ratio is at most 0.25.

For the variant RRLY, the enrichment ratio was at most 0.25.

Take IPWH: the enrichment ratio was at most 0.25.

VNPY: the enrichment ratio is at most 0.25.

As for HAFH, the enrichment ratio was at most 0.25.

For the variant DMGV, the enrichment ratio is at most 0.25.

For SRCY, the enrichment ratio was at most 0.25.

Turning to FSKN, the enrichment ratio is at most 0.25.

For FADV, the enrichment ratio is at most 0.25.

In the case of KLRM, the enrichment ratio was at most 0.25.

Turning to WLYV, the enrichment ratio was at most 0.25.

With FATE, the enrichment ratio is at most 0.25.

As for KQYY, the enrichment ratio was at most 0.25.

Turning to MGDN, the enrichment ratio is at most 0.25.

LSAT: the enrichment ratio was at most 0.25.

TKDT: the enrichment ratio is at most 0.25.

Turning to DRGD, the enrichment ratio was at most 0.25.

On to GYNP, for which the enrichment ratio is at most 0.25.

As to TAYE, the enrichment ratio was at most 0.25.

For GKFF, the enrichment ratio was at most 0.25.

In the case of NDHF, the enrichment ratio was at most 0.25.

On to STHK, for which the enrichment ratio is at most 0.25.

EGFS: the enrichment ratio is at most 0.25.

In the case of MQSN, the enrichment ratio is at most 0.25.

With MWYM, the enrichment ratio is at most 0.25.

Turning to NVIY, the enrichment ratio is at most 0.25.

Turning to DHGY, the enrichment ratio is at most 0.25.

MHDF: the enrichment ratio is at most 0.25.

As for YSQV, the enrichment ratio was at most 0.25.

In the case of TSVL, the enrichment ratio worked out at 1.48.

As to VYGD, the enrichment ratio was at most 0.25.

WRKY: the enrichment ratio is at most 0.25.

Turning to YAYD, the enrichment ratio is at most 0.25.

For RLWV, the enrichment ratio was at most 0.25.

DEVW: the enrichment ratio is at most 0.25.

On to LWRD, for which the enrichment ratio is at most 0.25.
